In PubChem BioAssay AID2326 (National Center for Advancing Translational Sciences (NCATS), 2010):
Out of some 270,000 compounds screened, about 1,100 (0.41%) were called active. Inconclusive results (about 3%) are left out. Calls come from the whole dose curve. The list shows a part of the results, in another mix than the full data. The source gives no active or inactive call for entries shown without one.

Assay: qHTS Assay for Inhibitors of Influenza NS1 Protein Function; note: actives are rising curves; nearly all actives have a fitted effect of over 50% in size
Details: activity, positive = more growth: at 46.1 µM (top of the series)
From the text: NIH Chemical Genomics Center [NCGC]
NIH Molecular Libraries Probe Centers Network [MLPCN]
Assay Submitter (PI): Daniel Engel
Influenza is a world-wide public health problem and emerging forms of the virus have the potential to cause a pandemic of equal or greater magnitude to the outbreaks recorded in 1918, 1957 or 1968. Vaccine development is proceeding and there also exist two classes of anti-influenza compounds. However these therapeutic modalities are neither fully effective nor widely enough available to fulfill global needs. In addition their potential usefulness against newly emergent strains is not known. Efforts are needed to develop novel agents against influenza virus, including broad-spectrum agents. Identification of small molecules that inhibit NS1 function either directly or by interfering with specific cellular pathways may be a key to increasing our defense against the virus.
We have miniaturized and optimized a cell based assay in which NS1 from influenza A is expressed in the budding yeast S. cerevisiae. NS1 is a multi-functional protein that counters the host innate immune response and facilitates viral versus cellular gene expression. Expression of NS1 causes a pronounced slow growth phenotype in yeast due to its intrinsic molecular activities. Small molecules that suppress the slow growth phenotype can be identified by a straightforward growth recovery assay using optical density (OD) as the measurement. The same yeast strain not expressing NS1 was used as positive control in the yeast growth recovery assay.
The yeast S. cerevisiae control and NS1 expressing cells were kindly supplied by laboratory of Dr. Daniel Engel, University of Virginia. Yeast starter cultures were stored in single use aliquots at -80C.
1. Yeast culture medium per liter: 1.2 g Yeast Nitrogen Base (w/out amino acids and Ammonium Sulphate), 5.0g Ammonium Sulphate, 0.77g -URA DO (drop-out) Supplement, adjust pH to 6.0. Adjust to 2% glucose prior to inoculating with yeast.
2. Yeast assay medium: 1.2 g Yeast Nitrogen Base (w/out amino acids and Ammonium Sulphate), 5.0g Ammonium Sulphate, 0.77g -URA DO (drop-out) Supplement, adjust pH to 6.0. Adjust to 2% D-galactose prior to inoculating with yeast.
1. Inoculate 100 mls of yeast culture medium with 1 ml of frozen yeast aliquote. Incubate overnight at 30C, 250RPM.
2. Harvest overnight culture at 4000 RPM and wash pellet with 15 mls H2O 3x.
3. Re-suspend washed pellet in 10 mls of yeast assay medium.
4. Prepare a 1:100 dilution of re-suspended culture in yeast assay medium.
5. Dispense 3.5 ul per well of reagents in step 4 in columns 2-48 in a black clear bottom 1536 well plate.
6. Dispense 3.5 ul per well of yeast assay medium in column 1 only.
7. Transfer 23 nl of compound per well.
8. Dispense 3.5 ul per well of yeast assay medium in columns 1-48.
9. Read plate using Viewlux protocol for optical density 600 (OD600) using excitation filter 600nm.
Potency is the fitted concentration of half-maximal effect.

SMILES | activity, positive = more growth | Potency
COC(=O)c1noc(-c2ccc(OC)cc2)n1 | -32.6% | 
Cc1ccc(C(=O)NC(=S)NNS(=O)(=O)c2ccc(C)cc2)cc1 | inactive: -66.6% | 
O=C(C1CCCCN1S(=O)(=O)c1ccc(F)cc1)N1CCN(c2ccccc2F)CC1 (configuration not stated) | inactive: -46.9% | 
CC1(C)Cc2c(sc3c2c(=N)n(Cc2ccco2)c(=O)n3CC(=O)Nc2ccccc2)CO1 | -62% | 
c1ccc(Cc2nnc3sc(-c4cccs4)nn23)cc1 | inactive: -69.9% | 
CCOC(=O)c1c(/N=C/c2cc([N+](=O)[O-])ccc2O)sc(C)c1C | -30.7% | 
COC(=O)CC(=O)CSc1nc2c(cc1C#N)CCC2 | 116% | 
CCOC(=O)Cn1c(CN(Cc2ccccc2)Cc2ccccc2)nc2c1c(=O)n(C)c(=O)n2C | -83.7% | 
CC1CC(C)CN(c2nc3c(c(=O)[nH]c(=O)n3C)n2CCCSc2nc3ccccc3s2)C1 (configuration not stated) | -58.7% | 
COc1c(O)cc2c(c1O)C(=O)CC(c1ccccc1)O2 (configuration not stated) | inactive: -47.5% | 
COc1ccc(N(CC(=O)Nc2ccc3c(c2)OCCO3)S(=O)(=O)c2cccnc2)cc1 | inactive: -61% | 
Cc1cc(C)n2nc(SCC(=O)Nc3c(C)n(C)n(-c4ccccc4)c3=O)nc2n1 |  | active: 5.01 µM
COc1cccc(NC(=O)Cc2ccc3ccccc3c2)c1 | inactive: -32.1% | 
CN(C1CCCC1)C1CCN(C(=O)CNC(=O)/C=C/c2ccc(F)cc2)CC1 | 36.1% | 
COc1ccccc1N1CCN(/N=C/c2cccc(O)c2)CC1 | inactive: -33.9% | 
C/C(=N\NC(=O)c1ccc(CN2CCOCC2)cc1)c1ccc([N+](=O)[O-])cc1 | 36.1% | 
Cc1oc(-c2ccc(Cl)cc2)cc1-c1nn2c(-c3ccoc3C)nnc2s1 |  | active: 10 µM
COC(=O)c1sc(NC(=O)C(C)C)c(C(=O)OC)c1C | inactive: -10.3% | 
COCCCN1C(=O)c2[nH]nc(-c3ccccc3O)c2C1c1ccc(Cl)cc1 (configuration not stated) | -102% | 
CC(=O)OCC1O[C@@H](O[C@@H]2C[C@H]3C(C)(C)[C@H](OC(C)=O)CC[C@]3(C)[C@H]3CC[C@]45C[C@]4(CC[C@H]5[C@@H](C)C[C@@H](O)[C@H](O)C(C)(C)O)[C@@]32C)[C@H](O)[C@@H](O)[C@@H]1O (some centres not stated) | -43.1% | 
O=C1c2[nH]nc(-c3ccccc3O)c2C(c2cccc(Cl)c2)N1CC1CCCO1 (configuration not stated) | -35.5% | 
CCOc1ccccc1NC(=O)COC(=O)CN(C)S(=O)(=O)c1ccc(C)cc1 | -98.2% | 
Cc1noc(NS(=O)(=O)c2ccc(NC(=O)COc3ccccc3)cc2)c1C | -39% | 
O=C1N=C(N2CCCC2)S/C1=C\c1cccc(Br)c1 | -34.3% | 
COc1ccc(-c2nc(Cn3c(SCc4cccc(F)c4)nc4ccncc43)c(C)o2)cc1OC | inactive: -80.2% | 
COc1cc(S(=O)(=O)Nc2cccnc2)ccc1Cl | 37.2% | 

SMILES | activity, positive = more growth | Potency
CCC(C(=O)NC1CCCC1)N(C(=O)Cn1nnc(-c2ccc(OC)c(OC)c2)n1)C1CCCCC1 (configuration not stated) | inactive: -45.5% | 
COc1ccccc1OCc1cc(C(=O)N2CCN(C)C(c3ccccc3)C2)no1 (configuration not stated) | -67% | 
c1ccc(-c2nc(N3CCCCCC3)nc(-n3ccnc3)n2)cc1 | inactive: -88.4% | 
Cc1ccc(-c2cc(C(=O)N3CCCCC3)c3ccccc3n2)cc1C | -134% | 
CCNC(=O)n1nccc1C(C)Oc1ccccc1 (configuration not stated) | -46.8% | 
COC(=O)c1c(NC(=O)CCc2ccc(C)o2)sc(C)c1C | -42.4% | 
COc1ccc(N(CC(O)Cn2c(C)nc3ccccc32)S(=O)(=O)c2ccccc2)cc1 (configuration not stated) | 28.2% | 
COC(=O)c1sccc1NC(=O)Cc1ccc(Br)cc1 | -74.4% | 
Cc1csc(NC(=O)CSc2nnc(Cc3cccn3C)n2CCc2ccccc2)n1 | -37.3% | 
O=C(Oc1cccc(N2C(=O)CCC2=O)c1)c1ccccc1 | 37.9% | 
c1ccc(CCc2nn3c(C4COc5ccccc5O4)nnc3s2)cc1 (configuration not stated) | -35.6% | 
CCCc1nc(SCC(=O)N2CCN(c3ccccc3)CC2)c2c(=O)n(C)c(=O)n(C)c2n1 | -51.9% | 
Cc1cc(C2=NNC(=NC3CCCCC3)SC2)c(C)n1-c1c(C)n(C)n(-c2ccccc2)c1=O | 31.1% | 
C=CCn1c(-c2cccc(Cl)c2)n[nH]c1=S | inactive: -40.7% | 
Cc1ccc(N2CCOCC2)c2c1C(=O)c1ccccc1C2=O | -34.1% | 
CCOC(=O)c1ccc(NC(=O)N2CCN(c3ccccn3)CC2)cc1 | -56.7% | 
Cn1c(=O)c2c(nc(CN3CCN(c4ccccc4F)CC3)n2CCCc2ccccc2)n(C)c1=O | -139% | 
CCN(CC)N=Nc1ccc(S(=O)(=O)Nc2nc(C)cc(C)n2)cc1 | -43% | 
COc1ccc(NS(=O)(=O)c2ccc3oc4ccccc4c3c2)cn1 | -52% | 
O=C1c2[nH]nc(-c3ccccc3O)c2C(c2ccccc2F)N1Cc1ccco1 (configuration not stated) | -196% | 
O=[N+]([O-])c1cc(Oc2cccnc2)cc([N+](=O)[O-])c1 | -39.2% | 
COc1ccc(-c2[nH]c(-c3cccc(OC)c3)nc2SCC(=O)NC2CCCC2)cc1 | -55.9% | 
O=C(CNC1CCCCCC1)Nc1ccccc1N1CCCCC1 | inactive: -37.3% | 
Cc1ccccc1NC(=S)NCCc1ccccc1 | -41.1% | 
Cc1ccc(SCC(=O)OCC(=O)NC(C)c2ccc(Br)cc2)cc1 (configuration not stated) | -40% | 
COc1ccc(C(=O)Nc2nc3c(s2)CCCC3)cc1S(=O)(=O)N1CCCc2ccccc21 |  | active: 12.6 µM

SMILES | activity, positive = more growth | Potency
CC(C)C(=O)N1CCC(CN=Cc2c(O)n(C3CCCCC3)c(=O)n(C3CCCCC3)c2=O)CC1 | -57.7% | 
CC(C)(C)NC(=S)Nc1ccc(Br)cc1 | inactive: -52.7% | 
O=C1c2[nH]nc(-c3ccccc3O)c2C(c2cccc(Cl)c2)N1Cc1ccco1 (configuration not stated) | -68% | 
c1cncc(-c2nc3cc4ccccc4cc3[nH]2)c1 | inactive: -75.2% | 
Brc1ccc(-c2cn3nc4c(nc3n2)CCCC4)cc1 | inactive: -23.9% | 
Cc1ccc(C)c(N2CCN(C(=O)Cc3ccc(-n4c(=O)[nH]c5ccsc5c4=O)cc3)CC2)c1 | 39.2% | 
CCc1ccc(CCC(=O)Nc2ccc(C)c(C)c2)o1 | inactive: -61.2% | 
Cc1ccc(N(CC(=O)Nc2cc(C)cc(C)c2)S(=O)(=O)c2c(C)noc2C)cc1 | 32.1% | 
O=C(NC(=S)Nc1sc2c(c1C(=O)O)CCCC2)c1ccccc1 | inactive: -38.6% | 
Cc1cc(O)c(-c2cc(C(=O)Nc3ccc(S(=O)(=O)N4CCOCC4)cc3)[nH]n2)cc1C | inactive: -35.8% | 
O=C(NCc1ccco1)C1CCN(c2nc3ccccc3n2Cc2ccccc2F)CC1 | inactive: -64.8% | 
COc1ccc(C2C(C#N)=C(N)N(c3cccnc3)C3=C2C(=O)CC(C)(C)C3)cc1OC (configuration not stated) | 42.8% | 
COc1ccc(-c2nc(-c3ccc4c(c3)OCO4)[nH]c2-c2ccc(OC)cc2)cc1 | -31% | 
COc1ccc(-c2nn(-c3ccccc3)cc2/C=C2/SC(=S)N(CCC(=O)O)C2=O)c(C)c1 |  | active: 11.2 µM
COc1ccc(/C(O)=C2/C(=O)C(=O)N(CCCN(C)C)C2c2ccc(C)o2)cc1Cl (configuration not stated) | inactive: -61.9% | 
Cc1ccc(NC(=O)c2cnn(-c3ccccc3)c2C)cc1 | inactive: -44.5% | 
CC(C)OCCCN1C(=O)c2[nH]nc(-c3ccccc3O)c2C1c1cccc(Cl)c1 (configuration not stated) | -86.3% | 
CCN(Cc1ccccc1)C(=S)NC(=O)c1ccccc1Br | inactive: -52.8% | 
CCOC(=O)C1(Cc2cccc(Cl)c2)CCCN(C(=O)C(C)(C)C)C1 (configuration not stated) | -39.9% | 
COc1ccc2nc3c(cc2c1)c(NC(=O)c1cccs1)nn3CC(C)C | -137% | 
COc1cc(SC)ccc1C(=O)Nc1cccc(C2OCCCO2)c1 | -33.7% | 
C=CCNC(=O)/C(C#N)=C/c1c(C)nn(-c2ccccc2)c1Cl | -47.1% | 
CC(C)(C)OC(=O)N1CCC[C@H]1c1nnc(SCc2ccc(Cl)cc2Cl)o1 | -134% | 
Cc1cc(-c2ccc(C)c(S(=O)(=O)NCc3cccc(Br)c3)c2)on1 | -34.4% | 
CCn1cc(C(=O)O)c(=O)c2cc(F)c(N/N=C/c3ccccc3)cc21 | 25.7% | 
COc1ccc(S(=O)(=O)NCC(c2cccnc2)N2CCN(c3ccccc3)CC2)cc1C (configuration not stated) | inactive: -64.5% | 

SMILES | activity, positive = more growth | Potency
COc1ccc(C2c3c(-c4ccccc4O)n[nH]c3C(=O)N2CCc2ccc(OC)c(OC)c2)cc1 (configuration not stated) | -76.4% | 
O=C(Nc1ccc(Cl)cc1)Nc1cc([N+](=O)[O-])ccc1F | inactive: -31.2% | 
COc1ccc(-c2cc(C(F)F)nc(-n3nc(C)cc3C)n2)cc1 | inactive: -49.7% | 
OCc1ccccc1OCCOc1ccc(Cl)c2cccnc12 | -40.1% | 
Oc1c(Cl)cc(Cl)cc1CNc1nccs1 | inactive: -47.8% | 
C=CCn1c(SCc2ccccc2)nc(O)cc1=O |  | active: 6.31 µM
COc1ccc(OC)c(NC(=O)c2cc3n(n2)C(C(F)(F)F)CC(c2ccc4c(c2)OCO4)N3)c1 (configuration not stated) | -38.2% | 
O=C(Nn1nnnc1Nc1ccccc1)C12CC3CC(CC(C3)C1)C2 | -32% | 
O=C(N/N=C/c1cccc([N+](=O)[O-])c1O)C(O)(c1ccccc1)c1ccccc1 | -58.7% | 
O=c1c(C(c2ccccc2)c2c(O)nc3n(c2=O)CCCS3)c(O)nc2n1CCCS2 | 32.4% | 
Cc1ccc(C(=O)Nc2ccncc2)c(C)c1 | inactive: -37.4% | 
O=C(c1cccc(F)c1)N1CCN(c2ccc([N+](=O)[O-])c(N3CCCCC3)c2)CC1 | -32.3% | 
CC(C)C(=O)NC(c1cccc([N+](=O)[O-])c1)c1ccc2cccnc2c1O (configuration not stated) | -134% | 
CCOC(=O)C1=C(C)N(c2ccccc2)C(=O)/C1=C\c1ccc(O)c(OC)c1 |  | active: 2.51 µM
Cc1cccc(N2CCN(C(=O)/C=C/c3cccs3)CC2)c1C | -58.4% | 
Fc1ccc(NC(=S)NCCc2ccccc2)c(F)c1F | -67.8% | 
COc1ccccc1C(=O)Nc1ccccc1SC | -63.2% | 
C1=C(c2c[nH]c3ccccc23)CCNC1 | inactive: -17.6% | 
COc1ccccc1N1CCN(C(c2cccs2)C(C)NS(=O)(=O)c2ccccc2)CC1 (configuration not stated) | -91.3% | 
O=C(Nc1cccnc1)Nc1ccc(F)c(Cl)c1 | -31.4% | 
O=C(NC1C2CC3CC(C2)CC1C3)c1ccc2c(c1)OCO2 (configuration not stated) | -32.8% | 
CCOC(=O)c1ccc(NC(=O)CC2COc3ccccc3O2)cc1 (configuration not stated) | -62.4% | 
CC(=O)N1CCCc2cc(S(=O)(=O)Nc3cccc(C)c3C)ccc21 | 16.2% | 
O=C1CN(CC(=O)N2CCOCC2)c2ccccc2O1 | -106% | 
